Reference: paper PMC9792355
No constants are given. Whether binding was seen depends on the method and setting. Binding seen in cells or lysates may run through a third protein. Some entries that bind do so weakly or less than the wild type.

Amino acid sequences for entries named in this document (tags omitted). A change or cut given only in a name is not applied to a line headed by its entry. Chains listed by the source or under a name are the forms on record and can include a tag or linker.
C1-fused HCK Y501F mutant (P08631, form named): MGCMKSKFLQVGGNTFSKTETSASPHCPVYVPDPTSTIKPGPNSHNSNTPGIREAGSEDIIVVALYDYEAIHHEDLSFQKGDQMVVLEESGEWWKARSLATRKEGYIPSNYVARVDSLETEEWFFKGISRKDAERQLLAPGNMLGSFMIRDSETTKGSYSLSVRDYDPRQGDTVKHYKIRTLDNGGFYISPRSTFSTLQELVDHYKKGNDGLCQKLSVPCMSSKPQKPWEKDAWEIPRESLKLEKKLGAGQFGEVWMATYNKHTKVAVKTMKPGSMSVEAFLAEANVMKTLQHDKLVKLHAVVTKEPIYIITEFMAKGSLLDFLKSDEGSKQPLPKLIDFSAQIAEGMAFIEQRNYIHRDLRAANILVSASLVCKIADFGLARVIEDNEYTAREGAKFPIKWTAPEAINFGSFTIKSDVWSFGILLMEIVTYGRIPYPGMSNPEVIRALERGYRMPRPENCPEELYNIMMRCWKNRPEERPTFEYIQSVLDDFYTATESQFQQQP
N1-fused HCK W234A K7R mutant (P08631, form named): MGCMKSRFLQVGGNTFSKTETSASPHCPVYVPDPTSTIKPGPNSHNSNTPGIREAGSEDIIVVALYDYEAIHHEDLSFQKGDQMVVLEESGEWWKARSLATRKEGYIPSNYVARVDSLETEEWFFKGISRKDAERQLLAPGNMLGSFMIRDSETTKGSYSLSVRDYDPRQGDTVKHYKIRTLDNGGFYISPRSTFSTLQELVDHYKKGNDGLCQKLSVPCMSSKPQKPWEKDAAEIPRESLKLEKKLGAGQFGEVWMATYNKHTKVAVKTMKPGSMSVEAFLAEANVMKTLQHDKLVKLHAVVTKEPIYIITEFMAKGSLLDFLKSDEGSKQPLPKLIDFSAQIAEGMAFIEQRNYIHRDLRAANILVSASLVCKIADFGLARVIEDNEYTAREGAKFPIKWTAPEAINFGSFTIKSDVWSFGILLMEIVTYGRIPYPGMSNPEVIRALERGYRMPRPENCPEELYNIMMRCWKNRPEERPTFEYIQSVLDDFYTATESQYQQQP
C1-fused HCK Y30F Y390F mutant (P08631, form named): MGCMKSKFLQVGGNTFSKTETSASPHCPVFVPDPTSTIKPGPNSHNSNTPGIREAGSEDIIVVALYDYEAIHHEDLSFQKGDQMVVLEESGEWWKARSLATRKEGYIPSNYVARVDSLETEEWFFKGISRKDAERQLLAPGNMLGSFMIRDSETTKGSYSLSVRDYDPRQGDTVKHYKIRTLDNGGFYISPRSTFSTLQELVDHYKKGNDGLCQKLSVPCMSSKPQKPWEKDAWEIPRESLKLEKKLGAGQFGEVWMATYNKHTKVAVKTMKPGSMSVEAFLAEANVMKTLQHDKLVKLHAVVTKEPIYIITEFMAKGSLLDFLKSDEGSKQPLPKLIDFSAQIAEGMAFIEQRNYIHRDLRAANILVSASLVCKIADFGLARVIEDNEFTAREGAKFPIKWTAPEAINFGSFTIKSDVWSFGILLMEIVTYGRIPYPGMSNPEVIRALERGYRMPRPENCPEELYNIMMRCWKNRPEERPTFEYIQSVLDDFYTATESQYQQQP
C1-fused HCK P228A mutant (P08631, form named): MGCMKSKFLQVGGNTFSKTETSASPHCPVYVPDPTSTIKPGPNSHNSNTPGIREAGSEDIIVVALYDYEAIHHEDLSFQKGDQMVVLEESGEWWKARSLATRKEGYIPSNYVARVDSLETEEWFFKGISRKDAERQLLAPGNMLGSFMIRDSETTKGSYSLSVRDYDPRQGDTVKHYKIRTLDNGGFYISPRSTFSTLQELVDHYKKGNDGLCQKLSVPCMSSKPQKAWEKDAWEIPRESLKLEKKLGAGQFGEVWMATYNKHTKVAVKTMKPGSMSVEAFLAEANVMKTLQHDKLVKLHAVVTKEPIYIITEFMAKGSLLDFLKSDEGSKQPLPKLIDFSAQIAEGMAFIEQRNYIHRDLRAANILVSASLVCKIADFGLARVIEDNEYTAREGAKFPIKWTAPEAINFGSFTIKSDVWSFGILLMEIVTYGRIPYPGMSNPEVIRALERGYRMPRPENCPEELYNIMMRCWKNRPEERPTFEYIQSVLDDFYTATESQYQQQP
W93K R150M HCK double mutant (P08631, form named): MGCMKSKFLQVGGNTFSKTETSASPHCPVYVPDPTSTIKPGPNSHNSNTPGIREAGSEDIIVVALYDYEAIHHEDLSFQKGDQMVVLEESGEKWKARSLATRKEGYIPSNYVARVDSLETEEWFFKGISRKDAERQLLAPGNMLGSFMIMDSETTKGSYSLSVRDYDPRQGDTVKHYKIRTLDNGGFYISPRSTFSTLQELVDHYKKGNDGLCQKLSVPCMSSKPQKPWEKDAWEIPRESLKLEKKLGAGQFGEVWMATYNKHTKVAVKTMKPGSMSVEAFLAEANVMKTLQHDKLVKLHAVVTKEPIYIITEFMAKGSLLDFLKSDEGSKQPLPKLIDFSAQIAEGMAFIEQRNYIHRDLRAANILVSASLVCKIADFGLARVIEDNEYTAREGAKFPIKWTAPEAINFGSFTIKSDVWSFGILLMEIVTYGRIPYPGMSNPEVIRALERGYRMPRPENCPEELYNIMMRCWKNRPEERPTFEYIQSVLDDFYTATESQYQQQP
UniProt O75563: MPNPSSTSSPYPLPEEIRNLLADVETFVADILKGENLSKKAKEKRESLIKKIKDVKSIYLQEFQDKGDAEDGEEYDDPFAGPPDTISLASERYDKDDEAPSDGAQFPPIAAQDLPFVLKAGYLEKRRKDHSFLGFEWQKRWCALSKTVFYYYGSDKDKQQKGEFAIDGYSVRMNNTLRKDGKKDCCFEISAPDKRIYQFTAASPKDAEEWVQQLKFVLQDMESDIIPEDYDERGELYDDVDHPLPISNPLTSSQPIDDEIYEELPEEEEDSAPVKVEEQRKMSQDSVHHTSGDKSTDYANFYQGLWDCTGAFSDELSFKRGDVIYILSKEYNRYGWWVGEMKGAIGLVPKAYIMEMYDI

Key:
Experiment in all cases: split reporter; Gaussia princeps luciferase complementation assay (GPCA) in HEK293T cells: Gluc2 on SKAP2/SKAP1, Gluc1 at the N (N1) or C (C1) terminus of the SRC kinase; 100 ng plasmid pair, luminescence read after lysis; normalized luminescence ratio (NLR), for mutants divided by that of wildtype SKAP2; loss of interaction = mean relative NLR among the nine kinases below 0.25
[1] = molecular target: N1-fused HCK Y501F mutant (UniProt P08631)
[2] = molecular target: N1-fused HCK W234A K7R mutant (UniProt P08631)
[3] = molecular target: C1-fused HCK Y30F Y390F mutant (UniProt P08631)
[4] = molecular target: C1-fused HCK P228A mutant (UniProt P08631)
[5] = molecular target: C1-fused HCK Y501F mutant (UniProt P08631)
[6] = molecular target: W93K R150M HCK double mutant (UniProt P08631)

Measured: binding

N2-SKAP2 (SRC kinase adaptor phosphoprotein 2, wildtype) (from UniProt O75563 1-359)
binds: all assays above
